From publication PMC12462500, “MRAP2 modifies the signaling and oligomerization state of the melanocortin-4 receptor” (Nature Communications, 2025)

Target: the molecule itself
Test: molecular brightness (SpIDA); confocal images of the basolateral membrane of HEK293AD cells with SNAP-tagged receptors labelled with SNAP-Surface647; SNAP-β1AR as the monomeric reference

B1: SNAP-tagged human melanocortin-4 receptor (SNAP-MC4R) (receptor, UniProt P32245 1-332, looked up)
chain: MVNSTHRGMHTSLHLWNRSSYRLHSNASESLGKGYSDGGCYEQLFVSPEVFVTLGVISLLENILVIVAIAKNKNLHSPMYFFICSLAVADMLVSVSNGSETIVITLLNSTDTDAQSFTVNIDNVIDSVICSSLLASICSLLSIAVDRYFTIFYALQYHNIMTVKRVGIIISCIWAACTVSGILFIIYSDSSAVIICLITMFFTMLALMASLYVHMFLMARLHIKRIAVLPGTGAIRQGANMKGAITLTILIGVFVVCWAPFFLHLIFYISCPQNPYCVCFMSHFNLYLILIMCNSIIDPLIYALRSQELRKTFKEIICCYPLGGLCDLSSRY
modifications: SNAP-tag labelled with SNAP-Surface647 or SNAP-Surface549 dye
notes: human melanocortin-4 receptor (hMC4R), wild type, in pcDNA3 or pVITRO2; The tag order Igκ-HA-ST-SNAP is told for the pVITRO2 construct; also called SNAP-MC4R-WT; SNAP-hMC4R; source: HEK293 (HEK293T, HEK293AD), transiently transfected, on live cells; not shown: SNAP-tag, N-terminal, kept
molecular brightness relative to a monomer: ~1.7 times | stoichiometry N: ~2
